# In publication PMC4336329 (PLoS ONE, 2015):
# The campaign covered roughly 310,000 compounds. About 14,000 (4.5%) showed an effect of 50% or more. Effects have a minus sign here. This is one part of the list.
# Biological target: human ether-à-go-go-related gene (hERG) potassium channel (human, UniProt Q12809)
# Experiment: primary screen, population patch clamp on CHO cells stably expressing hERG
# 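Note: peak tail current of the secondary pulse compared with the same well before compound.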
# human ether-à-go-go-related gene (hERG) potassium channel, sequence (Q12809 whole entry, looked up): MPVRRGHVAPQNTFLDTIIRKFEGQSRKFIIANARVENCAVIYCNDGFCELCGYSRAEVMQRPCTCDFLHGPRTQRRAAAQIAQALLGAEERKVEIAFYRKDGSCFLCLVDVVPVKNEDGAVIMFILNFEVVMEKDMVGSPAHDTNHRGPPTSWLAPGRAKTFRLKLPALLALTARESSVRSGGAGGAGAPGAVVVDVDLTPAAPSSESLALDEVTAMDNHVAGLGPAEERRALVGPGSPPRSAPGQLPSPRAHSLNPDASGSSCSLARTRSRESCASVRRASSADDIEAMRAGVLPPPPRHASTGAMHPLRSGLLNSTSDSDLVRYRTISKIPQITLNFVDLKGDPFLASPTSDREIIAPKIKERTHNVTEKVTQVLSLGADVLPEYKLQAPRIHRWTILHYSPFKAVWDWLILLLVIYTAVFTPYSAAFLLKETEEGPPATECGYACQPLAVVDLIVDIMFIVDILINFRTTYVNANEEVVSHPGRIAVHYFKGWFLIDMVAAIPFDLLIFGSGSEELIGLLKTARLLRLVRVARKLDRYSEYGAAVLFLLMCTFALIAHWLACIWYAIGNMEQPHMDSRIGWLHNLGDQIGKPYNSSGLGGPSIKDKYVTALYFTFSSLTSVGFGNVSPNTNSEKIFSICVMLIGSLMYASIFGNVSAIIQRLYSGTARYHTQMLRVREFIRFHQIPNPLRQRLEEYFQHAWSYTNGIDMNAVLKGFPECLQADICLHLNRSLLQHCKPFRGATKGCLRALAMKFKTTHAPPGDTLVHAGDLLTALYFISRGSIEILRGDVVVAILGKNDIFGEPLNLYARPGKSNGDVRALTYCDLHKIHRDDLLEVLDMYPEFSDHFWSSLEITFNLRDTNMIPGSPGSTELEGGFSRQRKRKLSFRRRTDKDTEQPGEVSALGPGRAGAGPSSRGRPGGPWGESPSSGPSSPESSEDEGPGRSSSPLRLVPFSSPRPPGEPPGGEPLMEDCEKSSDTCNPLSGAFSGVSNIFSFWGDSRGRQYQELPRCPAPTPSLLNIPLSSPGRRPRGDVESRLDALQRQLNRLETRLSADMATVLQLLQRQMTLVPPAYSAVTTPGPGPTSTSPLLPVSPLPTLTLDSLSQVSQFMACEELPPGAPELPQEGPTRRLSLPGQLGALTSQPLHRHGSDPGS
row,SMILES,"hERG current change (%, negative = inhibition) at 10uM [%]"
1,COc1cccc(N2[C@@H](CC(=O)O)c3ccccc3S2(=O)=O)c1,16.7
2,COc1ccccc1C(=O)NNC(=O)C(=O)NC(C)C,17.8
3,OC[C@@H](O)C1OC2NC(=S)OC2C1O (stereo partly drawn),9.7
4,Cc1ccc(NC(=O)COC(=O)/C=C/c2ccccc2)cc1S(=O)(=O)N1CCOCC1,-14.2
5,C/C(=N\O)C(=O)NCCN1CCCCC1,-10.2
6,O=C(Nc1nc(-c2ccccn2)cs1)c1ccccc1-n1cnnn1,-45.4
7,CC1=CC(C)(C)Nc2ccc(OC(=O)C(Cc3ccccc3)N3C(=O)C4CCCCC4C3=O)cc21 (stereo not drawn),2.8
8,COC(=O)c1ccc2nc(NC(=O)C(C)C)sc2c1,-3.98
9,COc1cccc(C2=CC(=O)C[C@H](c3ccc(F)cc3)C2)c1,-14.9
10,COc1ccc(Cl)cc1NC(=O)C(C)OC(=O)C1=NNC(=O)CC1 (stereo not drawn),-7.01
11,CCOc1cccc(C(=O)Nc2ccc3ccccc3c2)c1,13
12,Cc1cc(C)cc(N(C(=O)CNC(=O)c2cccs2)C(C(=O)NC2CCCC2)c2cccnc2)c1 (stereo not drawn),12.3
13,CCN(CC(=O)NCc1cccs1)C(=O)c1ccc(S(=O)(=O)N(C)C)cc1,48.6
14,CCCc1n(CC(O)COC2CCCCC2)c2ccccc2[n+]1C.[I-] (stereo not drawn),-6.78
15,CC(=O)Nc1ccc(N/C=C/C(=O)c2ccc(C)cc2)cc1,18.1
16,c1ccc(OCCSc2nnc3sc4ccccc4n23)cc1,-13.7
17,Nc1[nH]nc2nc3ccccc3cc12,23
18,COC(=O)CC(NC(=O)c1ccco1)c1ccc(C(C)C)cc1 (stereo not drawn),-16.6
19,O=C(Nc1ccsn1)c1ccc(Cl)cc1Cl,20.7
20,COc1ccc(CN2CCNC(=O)C2CC(=O)N2CCCCO2)c(OC)c1 (stereo not drawn),13.9
21,C/C=C(/C)C(=O)O[C@@H]1c2cc3c(c4c2[C@@]2(CO4)C(=O)C(OC)=C(OC)C=C2C[C@@H](C)[C@H]1C)OCO3,-5.17
22,CN(C(=O)c1cccc(Cl)c1)C1CCCN(Cc2ccccc2F)C1 (stereo not drawn),0.373

row,SMILES,"hERG current change (%, negative = inhibition) at 10uM [%]"
1,Cc1ccnc(N2CCC(C(=O)Nc3ccc4c(c3)OCCO4)CC2)n1,9.83
2,CC(NC(=O)c1cccs1)C(c1cccs1)N1CCOCC1 (stereo not drawn),11.8
3,CCOC(=O)c1c(CCl)nc2ccccc2c1C.Cl,31.5
4,O=C(Nc1ccccn1)c1cc(-c2cccc(Cl)c2)nc2ccccc12,13.3
5,C=CCN1C(=O)/C(=C2/Sc3ccccc3N2C)SC1=Nc1c(C)n[nH]c1C,-3.99
6,CCn1nc(C)c(CNC(=O)C2CCC(=O)N(Cc3cccc(F)c3)C2)c1C (stereo not drawn),15
7,Cc1nonc1NC(=O)CSc1nc2cc(Cl)ccc2c2c1CCCC2,2.15
8,Oc1ccc(C=NCCc2ccccc2)cc1,10.2
9,CCCCCCC(=O)N/N=C/c1ccco1,-21.9
10,CCCCn1c(=O)[nH]c(=O)c2c1nc(-c1ccc(-c3ccccc3Br)o1)n2CCOC,-2.63
11,CCc1ccccc1NC(=O)c1cc(C2CC2)on1,-24.9
12,O=C1Nc2ccccc2C1C(C[N+](=O)[O-])c1ccccn1 (stereo not drawn),20.3
13,CCOC(=O)C1(Nc2nccs2)Sc2ccccc2NC1=O (stereo not drawn),-9.73
14,COc1ccc(Cl)c(Cn2c(NCc3ccco3)nc3c2c(=O)n(C)c(=O)n3C)c1,0.592
15,N#Cc1nc(COc2ccccc2)oc1N1CCN(Cc2ccccc2)CC1,-21.9
16,Cc1cc(C(=O)NCC(=O)Nc2c(C)cccc2C)c2ccccc2n1,8.37
17,C=CC[n+]1c(-c2ccccc2)csc1NC(C)(C)C.[Br-],-6.95
18,CCOc1ccccc1NC(=O)CSc1nnc2c(CC)c(C)nc(N)n12,4.35
19,CC(C)CC(=O)Nc1ccc(C(=O)NNC(=O)C(c2ccccc2)c2ccccc2)cc1,18.7
20,CCCCCCn1c(=O)[nH]c2nc3cc(N)ccc3nc2c1=O,-7.9
21,CCC(C)C(NC(=O)c1ccc(Cl)cc1Cl)C(=O)O (stereo not drawn),14.3
22,O=C(C(=O)N1CCOCC1)c1cn(Cc2c(F)cccc2Cl)c2ccccc12,22.1

row,SMILES,"hERG current change (%, negative = inhibition) at 10uM [%]"
1,O=C(NCc1ccc2c(c1)OCO2)c1nc(Cn2cc([N+](=O)[O-])cn2)no1,-33.2
2,COc1ccc(CCNC(=O)CN(c2cccc([N+](=O)[O-])c2)S(C)(=O)=O)cc1OC,30.9
3,CC(NC(=O)CCCCCN1C(=O)c2ccccc2C1=O)c1ccc2c(c1)CCCC2 (stereo not drawn),-17.5
4,CSc1nc2ccc(S(=O)(=O)N3CCOCC3)cc2s1,1.63
5,CCOC(=O)CON1C(=O)C(=O)N(OCC(=O)OCC)C2CCCCC21 (stereo not drawn),11.7
6,CC(OC(=O)c1n[nH]c2ccccc12)C(=O)Nc1ccccc1[N+](=O)[O-] (stereo not drawn),3.73
7,COc1ccc2nc(NC(=O)CCNS(=O)(=O)c3ccc4c(c3)oc(=O)n4C)sc2c1,-5.68
8,Cc1cccc(C)c1Nc1c(-c2ccc(N3CCOCC3)cc2)nc2cnccn12,-8.65
9,Clc1ccc2oc(-c3cccnc3NCc3ccccc3)nc2c1,-15.3
10,O=C(Nc1cc(S(=O)(=O)N2CCOCC2)ccc1-n1cncn1)c1ccc(Cl)cc1,-50.4
11,O=C(NCC1CCCO1)Nc1ccccc1 (stereo not drawn),-1.34
12,COc1ccc(N2CCN(CC(=O)c3ccc(O)c(C)c3O)CC2)cc1,16.7
13,COc1cc(/C=N/O)cc(Br)c1OCc1cccc(Cl)c1,5.34
14,Cc1cc(C)nc(NS(=O)(=O)c2ccc(NC(=O)CN3C(=O)c4ccccc4C3=O)cc2)n1,5.38
15,O=C(Nc1cccc([N+](=O)[O-])c1)C(=O)N1CCCCC1,9.35
16,COc1cc(NC(=O)CN(C)CCOc2ccccc2)c(C)cc1[N+](=O)[O-],-15.7
17,COC(=O)c1cc(OC)c(OC)cc1NC(=O)CN1CCOCC1,-1.45
18,O=[N+]([O-])c1ccccc1CSc1nnc2ccccn12,-0.991
19,COc1ccc(-c2cc(C)no2)cc1S(=O)(=O)NCCc1ccco1,-16.2
20,COc1cccc(C2c3[nH]c4ccccc4c3C[C@H]3C(=O)N(c4ccccc4C(=O)N4CCC(C(=O)O)CC4)C(=O)N23)c1 (stereo partly drawn),1.79
21,CC(=O)C1=C(O)C(=O)N(CCc2c[nH]c3ccccc23)C1c1ccco1 (stereo not drawn),6.71
22,Fc1ccccc1/C=N/Nc1nc(-c2ccccn2)nc2ccccc12,14.9

row,SMILES,"hERG current change (%, negative = inhibition) at 10uM [%]"
1,COc1cc(Br)cc(/C=C/c2ccc3cccc(O)c3n2)c1O,19.5
2,CS(=O)(=O)N(CC(=O)N1CCN(c2ccccc2)CC1)c1cc(C(F)(F)F)ccc1Cl,-25.4
3,CC(C)C[C@H](NC(=O)N1CC(=O)Nc2ccccc21)C(=O)N[C@@H](Cc1ccccc1)C(=O)O,13.2
4,O=c1c2ccccc2nc(C[n+]2ccccc2)n1-c1cccc(C(F)(F)F)c1.[Br-],13.1
5,Cn1c(NCCCO)nc2c1c(=O)n(Cc1ccccc1F)c(=O)n2C,2.95
6,Cc1n[nH]c(C)c1CCNC(=O)C1CCC(=O)N(CCc2cccc(F)c2)C1 (stereo not drawn),9.63
7,COc1ccc(Cn2c(O)c(C=NCCCn3ccnc3)c(=O)[nH]c2=O)cc1,0.947
8,COc1ccc(S(=O)(=O)Nc2cc(OC)c(NC(=O)c3ccco3)cc2OC)cc1,-21.3
9,O=S(=O)(c1ccc(Cl)cc1)N1CCN(C(=S)NCC2CCCO2)CC1 (stereo not drawn),-34.7
10,COc1cccc(CCc2nnc(CCC(=O)N3CCCC3c3nccs3)o2)c1 (stereo not drawn),16
11,CNC(=O)c1ccc(NC(=O)Nc2ccccc2)cc1,12.9
12,COc1ccc(-c2ccc(CCC(=O)O)n2NC(=O)c2ccc(O)cc2)cc1,9.63
13,COc1cc(C(=O)NNC(=O)c2ccc(S(=O)(=O)N3CCCCC3)cc2)cc(OC)c1OC,-17
14,CN(C)CCN(C(=O)CCS(=O)(=O)c1ccccc1)c1nc2c(F)cccc2s1,13.6
15,O=C(NCCc1cccs1)C1CC(c2ccccc2[N+](=O)[O-])=NO1 (stereo not drawn),-16.3
16,O=C(CSc1ncnc2c1nnn2Cc1ccc(F)cc1)NC1CCCCC1,11.8
17,Cc1cc(C(=O)N=Nc2c(O)n(C(C)C)c3ccccc23)n[nH]1,-21.6
18,Cc1ccc(C(=O)CCC(=O)Nc2cccc(C)c2)cc1,15.3
19,COc1ccccc1NC(=O)CSc1nnc(-c2ccccn2)n1Cc1ccco1,-9.97
20,COC(=O)CSc1nnc(-c2ccco2)o1,8.13
21,CCOc1cc(CNc2ncn[nH]2)ccc1OCC(=O)NC(C)(C)C,5.22
